Results taken from the supplement of paper PMC12217912.
The other results are listed elsewhere or left out. Sequences were assembled here from the parent chain. Values near 0.05 are background.

B1: TEV protease; numbered along this chain (parent)
chain: MGESLFKGPRDYNPISSSICHLTNESDGHTTSLYGIGFGPFIITNKHLFRRNNGTLVVQSLHGVFKVKDTTTLQQHLVDGRDMIIIRMPKDFPPFPQKLKFREPQREERICLVTTNFQTKSMSSMVSDTSCTFPSGDGIFWKHWIQTKDGQCGSPLVSTRDGFIVGIHSASNFTNTNNYFTSVPKNFMELLTNQEAQQWVSGWRLNADSVLWGGHKVFMVKPEEPFQPVKEATQL

Variants of: B1
Assay: raw area under fraction-flipped curve 0-4 h after induction (AUC4h, not background-subtracted), DNA-recorder readout of cleavage of the substrate (dimensionless); higher = more cleavage of the substrate by the protease variant
Conditions: temperature: 34 °C; time window: 0-4 h after rhamnose induction
Procedure: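 In vivo DNA recorder in E. coli TOP10(DE3) ΔrhaA at 34 °C. Each TEVp single-site mutant (parent TEVp 0) is paired with a single-site variant of the 7-mer TEVs (canonical ENLYFQ|S). The substrate sits between flexible linkers in a Bxb1-sfGFP-TEVs-SsrA fusion, so cleavage stabilises Bxb1 and speeds flipping of a recombination array, read by NGS. The value is the raw area under the fraction-flipped curve over 0-4 h after rhamnose induction (AUC4h), with ≥20 reads per time point. It is not background-subtracted; inactive controls average about 0.047.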
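Note: Bxb1 expression induced with 0.2% (w/v) L-rhamnose at OD600 near 0.5, cultures sampled hourly, flipped fraction per protease–substrate barcode pair counted by paired-end Illumina sequencing.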

Variant	area with substrate CNLYFQS	area with substrate DNLYFQS	area with substrate FNLYFQS	area with substrate GNLYFQS	area with substrate HNLYFQS	area with substrate INLYFQS	area with substrate KNLYFQS	area with substrate LNLYFQS	area with substrate NNLYFQS	area with substrate SNLYFQS	area with substrate TNLYFQS	area with substrate VNLYFQS	area with substrate WNLYFQS	area with substrate MNLYFQS	area with substrate YNLYFQS	area with substrate PNLYFQS	area with substrate RNLYFQS	area with substrate QNLYFQS
L77G	0.0836	0.0602	0.0708	0.0709	0.0644	0.0519	0.0549	0.0555	0.0574	0.0674	0.0702	0.056	0.0655	–	–	–	–	–
L77E	0.054	0.0619	0.0508	0.0772	0.0839	–	0.025	0.0588	–	0.0574	0.0541	0.0645	0.0501	0.0468	0.061	–	–	–
G39T	0.0539	0.0576	–	0.0466	0.042	–	0.0415	0.0419	0.038	–	0.048	0.0375	0.0328	0.0393	0.0429	0.04	0.0294	–
Q74C	0.0591	0.078	0.0541	–	0.0591	–	0.0794	0.0629	0.0671	–	0.0555	–	0.0556	–	0.0682	–	–	–
Q74R	0.0734	0.0591	–	0.0657	0.0628	–	–	0.0582	–	–	0.0555	0.0743	0.0647	0.0668	–	0.0694	0.0643	–
G54S	0.0469	0.0769	–	0.0582	0.0544	–	0.063	0.0565	0.0415	0.058	0.0563	0.0791	0.0622	0.0571	0.0456	0.0585	–	–
D69N	0.074	0.0829	0.061	0.0647	0.0574	0.063	0.066	–	–	–	0.0451	–	0.0608	–	0.0675	0.0697	–	–
D69T	0.0506	0.0836	–	–	0.0594	–	0.064	–	0.0681	0.0632	–	0.0729	0.07	0.0615	0.0577	0.0701	–	–
I42Q	0.0365	0.0369	0.0326	0.0426	0.0308	0.0466	–	0.0497	–	–	0.049	0.0397	0.0405	0.037	0.0579	0.0323	–	–
S60M	0.0681	0.0882	0.0614	–	0.0652	0.0663	0.0635	–	0.0687	–	0.0727	–	0.0584	–	0.0649	0.0703	–	–
S60P	0.0506	0.0639	–	0.037	0.0455	–	0.0524	0.0405	0.0389	–	0.0524	–	0.0421	0.0666	0.0498	0.0463	–	0.052
S60R	0.0607	0.0888	0.0538	0.0687	0.0686	0.0574	0.0624	0.0611	0.0678	0.0369	0.0447	–	0.053	–	–	0.0643	–	0.04
T70G	0.0668	0.0746	0.0527	–	0.0767	0.0653	0.0677	–	0.0595	–	0.0448	–	0.0545	0.0611	0.0704	0.0652	–	–
T70H	0.0439	0.0668	–	0.0575	0.0611	–	–	–	0.0625	0.0587	–	–	–	–	0.0589	0.0588	–	–
T70Q	0.0619	0.0756	0.0553	–	0.0407	–	–	0.0696	0.0767	0.0574	0.0565	0.0549	0.0578	–	0.0591	–	–	0.0548
V58F	0.0596	0.0734	–	–	–	0.0569	0.0545	0.0653	0.0583	–	–	–	–	–	–	–	–	–
K68V	0.0627	0.0694	–	0.0645	0.0606	0.0626	0.0664	0.0799	–	–	0.0656	0.0506	0.0592	–	0.0691	0.0596	–	–
K68C	0.0902	0.0755	0.0451	–	0.0573	–	–	0.0699	–	–	–	–	0.0619	0.0681	0.063	0.0283	–	–
K46W	0.0533	0.0557	0.0586	0.0538	0.0448	–	0.0609	0.0531	0.0418	0.0568	0.0558	0.067	0.06	0.0568	0.0518	0.061	–	0.0841
K46I	0.0496	0.0586	0.0465	0.0692	–	0.0532	0.0575	0.0526	0.0672	0.0637	0.0522	0.0564	0.0523	0.0576	–	0.0597	–	0.0713
K46V	0.0739	0.06	–	–	–	0.0575	0.0498	0.0547	0.0427	–	0.0516	0.0565	0.0559	–	0.0681	–	–	0.0668
G63H	0.0714	0.0793	–	0.0653	–	0.067	–	0.0696	0.0634	–	0.0626	0.0669	0.0574	0.0576	–	–	–	–
P40Y	0.0646	0.0557	0.0705	0.0621	0.064	–	0.0686	0.0549	0.0208	–	0.0807	–	0.052	0.0712	0.0518	0.0704	0.0504	0.0457
H47P	0.0578	0.0566	–	–	0.0485	0.0574	0.057	–	0.0694	0.034	0.0631	0.06	0.0585	0.0504	0.0388	0.0896	–	–
H47M	0.0589	0.066	0.0625	0.0582	0.0578	0.0563	–	0.061	0.0683	0.0654	0.0585	–	0.0526	–	0.0359	0.0465	–	0.0513
D79A	0.0772	0.0727	–	–	–	0.0702	–	0.0754	–	0.0749	0.082	0.0636	0.082	–	0.0573	0.0756	–	–
R50E	0.0437	0.0791	0.0545	0.0589	0.0586	0.05	0.0613	0.0626	0.0539	0.0528	0.0855	0.0682	0.0589	0.0806	–	0.0705	–	0.0742
T55F	0.0844	0.0737	–	–	0.0668	0.0753	0.0305	–	–	0.0654	0.0626	–	0.0562	–	0.0698	0.0698	0.0549	–
